Assay results reported in a compilation of properties of binary mixtures (doi:10.1007/s10953-015-0325-1).
The densities may have been worked out from excess volumes.

Assay: xn = mol fraction of the nth substance listed
Conditions: 100 kPa

CCCN + CCCCCCCC[n+]1ccn(C)c1.F[P-](F)(F)(F)(F)F
mass density (293.15 K, x1 = 0.0976): 1223.5 kg/m3 | mass density (293.15 K, x1 = 0.218): 1201.2 kg/m3 | mass density (293.15 K, x1 = 0.263): 1191.9 kg/m3 | mass density (293.15 K, x1 = 0.3677): 1167.5 kg/m3 | mass density (293.15 K, x1 = 0.4676): 1138.8 kg/m3 | mass density (293.15 K, x1 = 0.6971): 1039.6 kg/m3 | mass density (293.15 K, x1 = 0.7972): 969.6 kg/m3 | mass density (293.15 K, x1 = 0.9087): 857.1 kg/m3 | mass density (298.15 K, x1 = 0.0976): 1220 kg/m3 | mass density (298.15 K, x1 = 0.218): 1198 kg/m3 | mass density (298.15 K, x1 = 0.263): 1189 kg/m3 | mass density (298.15 K, x1 = 0.5629): 1102.3 kg/m3 | mass density (298.15 K, x1 = 0.9087): 856 kg/m3 | mass density (298.15 K, x1 = 1): 717.3 kg/m3 | mass density (303.15 K, x1 = 0.0976): 1215.9 kg/m3 | mass density (303.15 K, x1 = 0.218): 1193.8 kg/m3 | mass density (303.15 K, x1 = 0.263): 1184.7 kg/m3 | mass density (303.15 K, x1 = 0.3677): 1160.3 kg/m3 | mass density (303.15 K, x1 = 0.4676): 1131.6 kg/m3 | mass density (303.15 K, x1 = 0.5629): 1097.1 kg/m3 | mass density (303.15 K, x1 = 0.7972): 962.1 kg/m3 | mass density (308.15 K, x1 = 0.0976): 1212.2 kg/m3 | mass density (308.15 K, x1 = 0.218): 1190.4 kg/m3 | mass density (308.15 K, x1 = 0.3677): 1156.5 kg/m3 | mass density (308.15 K, x1 = 0.4676): 1128 kg/m3 | mass density (308.15 K, x1 = 0.5629): 1093.5 kg/m3 | mass density (308.15 K, x1 = 0.6971): 1027.7 kg/m3 | mass density (308.15 K, x1 = 0.7972): 957.6 kg/m3 | mass density (308.15 K, x1 = 1): 703.7 kg/m3 | mass density (313.15 K, x1 = 0.218): 1186.5 kg/m3 | mass density (313.15 K, x1 = 0.3677): 1152.6 kg/m3 | mass density (313.15 K, x1 = 0.4676): 1123.6 kg/m3 | mass density (313.15 K, x1 = 0.5629): 1089.4 kg/m3 | mass density (313.15 K, x1 = 0.7972): 953 kg/m3 | mass density (313.15 K, x1 = 0.9087): 839.4 kg/m3 | mass density (313.15 K, x1 = 1): 698.3 kg/m3

CCCN + CCCCCC[n+]1ccn(C)c1.F[P-](F)(F)(F)(F)F
mass density (293.15 K, x1 = 1): 719.6 kg/m3 | mass density (303.15 K, x1 = 1): 709 kg/m3 | mass density (308.15 K, x1 = 1): 703.7 kg/m3 | mass density (313.15 K, x1 = 1): 698.3 kg/m3

CCCN + CCCC[n+]1ccn(C)c1.F[P-](F)(F)(F)(F)F
mass density (293.15 K, x1 = 0.0684): 1353.2 kg/m3 | mass density (293.15 K, x1 = 0.155): 1330.3 kg/m3 | mass density (293.15 K, x1 = 0.2613): 1297.2 kg/m3 | mass density (293.15 K, x1 = 0.4366): 1230.3 kg/m3 | mass density (293.15 K, x1 = 0.69): 1083.6 kg/m3 | mass density (293.15 K, x1 = 0.79): 996.9 kg/m3 | mass density (298.15 K, x1 = 0.155): 1326.4 kg/m3 | mass density (298.15 K, x1 = 0.2613): 1293.7 kg/m3 | mass density (298.15 K, x1 = 0.4366): 1226.3 kg/m3 | mass density (298.15 K, x1 = 0.5956): 1143.3 kg/m3 | mass density (298.15 K, x1 = 0.79): 992.7 kg/m3 | mass density (298.15 K, x1 = 0.9026): 863 kg/m3 | mass density (303.15 K, x1 = 0.2613): 1289.9 kg/m3 | mass density (303.15 K, x1 = 0.4366): 1222.1 kg/m3 | mass density (303.15 K, x1 = 0.69): 1074.1 kg/m3 | mass density (303.15 K, x1 = 0.79): 987.9 kg/m3 | mass density (303.15 K, x1 = 1): 709 kg/m3 | mass density (308.15 K, x1 = 0.0684): 1341.3 kg/m3 | mass density (308.15 K, x1 = 0.2613): 1285.9 kg/m3 | mass density (308.15 K, x1 = 0.3519): 1253.2 kg/m3 | mass density (308.15 K, x1 = 0.4366): 1218.3 kg/m3 | mass density (308.15 K, x1 = 0.5956): 1134.7 kg/m3 | mass density (308.15 K, x1 = 0.69): 1069.6 kg/m3 | mass density (308.15 K, x1 = 0.79): 983.1 kg/m3 | mass density (308.15 K, x1 = 0.9026): 853.2 kg/m3 | mass density (308.15 K, x1 = 1): 703.7 kg/m3 | mass density (313.15 K, x1 = 0.0684): 1337.5 kg/m3 | mass density (313.15 K, x1 = 0.155): 1314.9 kg/m3 | mass density (313.15 K, x1 = 0.2613): 1281.8 kg/m3 | mass density (313.15 K, x1 = 0.3519): 1248.7 kg/m3 | mass density (313.15 K, x1 = 0.4366): 1214 kg/m3 | mass density (313.15 K, x1 = 0.79): 978.4 kg/m3 | mass density (313.15 K, x1 = 0.9026): 847.8 kg/m3 | mass density (313.15 K, x1 = 1): 698.3 kg/m3

CCCCCCCC[n+]1ccn(C)c1.F[P-](F)(F)(F)(F)F + CCCN
mass density (293.15 K, x2 = 0): 1238.8 kg/m3 | mass density (298.15 K, x2 = 0): 1234.9 kg/m3 | mass density (308.15 K, x2 = 0): 1227.1 kg/m3 | mass density (313.15 K, x2 = 0): 1223.3 kg/m3

CCCCCC[n+]1ccn(C)c1.F[P-](F)(F)(F)(F)F + CCCN
mass density (293.15 K, x2 = 0): 1296.4 kg/m3 | mass density (293.15 K, x2 = 0.1718): 1262 kg/m3 | mass density (293.15 K, x2 = 0.2686): 1238 kg/m3 | mass density (293.15 K, x2 = 0.3426): 1216.8 kg/m3 | mass density (293.15 K, x2 = 0.4606): 1176.8 kg/m3 | mass density (293.15 K, x2 = 0.5627): 1133.1 kg/m3 | mass density (293.15 K, x2 = 0.6597): 1080.5 kg/m3 | mass density (293.15 K, x2 = 0.7913): 984 kg/m3 | mass density (293.15 K, x2 = 0.902): 867.2 kg/m3 | mass density (298.15 K, x2 = 0): 1292.3 kg/m3 | mass density (298.15 K, x2 = 0.0873): 1276.3 kg/m3 | mass density (298.15 K, x2 = 0.2686): 1234.2 kg/m3 | mass density (298.15 K, x2 = 0.3426): 1213.1 kg/m3 | mass density (298.15 K, x2 = 0.4606): 1172.9 kg/m3 | mass density (298.15 K, x2 = 0.5627): 1129.3 kg/m3 | mass density (298.15 K, x2 = 0.6597): 1076.7 kg/m3 | mass density (298.15 K, x2 = 0.7913): 980 kg/m3 | mass density (298.15 K, x2 = 0.902): 862.8 kg/m3 | mass density (303.15 K, x2 = 0): 1288.3 kg/m3 | mass density (303.15 K, x2 = 0.0873): 1272.3 kg/m3 | mass density (303.15 K, x2 = 0.2686): 1230.1 kg/m3 | mass density (303.15 K, x2 = 0.3426): 1209.1 kg/m3 | mass density (303.15 K, x2 = 0.6597): 1072.5 kg/m3 | mass density (303.15 K, x2 = 0.7913): 975.6 kg/m3 | mass density (303.15 K, x2 = 0.902): 858.2 kg/m3 | mass density (308.15 K, x2 = 0): 1284.4 kg/m3 | mass density (308.15 K, x2 = 0.1718): 1250.6 kg/m3 | mass density (308.15 K, x2 = 0.2686): 1226.2 kg/m3 | mass density (308.15 K, x2 = 0.3426): 1205.3 kg/m3 | mass density (308.15 K, x2 = 0.4606): 1164.7 kg/m3 | mass density (308.15 K, x2 = 0.7913): 971.3 kg/m3 | mass density (308.15 K, x2 = 0.902): 853.7 kg/m3 | mass density (313.15 K, x2 = 0.0873): 1264.7 kg/m3 | mass density (313.15 K, x2 = 0.1718): 1246.8 kg/m3 | mass density (313.15 K, x2 = 0.2686): 1222.3 kg/m3 | mass density (313.15 K, x2 = 0.3426): 1201.2 kg/m3 | mass density (313.15 K, x2 = 0.4606): 1160.6 kg/m3 | mass density (313.15 K, x2 = 0.6597): 1064.4 kg/m3 | mass density (313.15 K, x2 = 0.902): 848.9 kg/m3

CCCC[n+]1ccn(C)c1.F[P-](F)(F)(F)(F)F + CCCN
mass density (293.15 K, x2 = 0): 1370.3 kg/m3 | mass density (298.15 K, x2 = 0): 1366.2 kg/m3 | mass density (303.15 K, x2 = 0): 1362 kg/m3 | mass density (308.15 K, x2 = 0): 1357.9 kg/m3 | mass density (313.15 K, x2 = 0): 1353.8 kg/m3
